The record followed here is the supplement of paper PMC10681739.

Over roughly 4,000 sequences, “arbitrary fluorescence units” has its median near 830; the highest 2% begin near 6,500. The list lacks most of the strong results.
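Also: Full-length recombinant human RUNX1 bound to double-stranded DNA microarray spots, detected with an Alexa488-labelled secondary antibody after the anti-RUNX1 primary, read as scanned spot fluorescence.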

The test addresses RUNX1 (UniProt Q01196). As to the kind of experiment: RUNX1 binding intensity (PBM fluorescence), RUNX1 alone (arbitrary fluorescence units); higher = stronger binding. The note with it: RUNX1 concentration 2 nM; ETS1 concentration 0 nM. On the procedure: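 gcPBM on 36-bp genomic-derived probes (partner site mutated) containing one RUNX1 site and no ETS1 site. Recombinant human RUNX1 (2 nM) was incubated alone or with ETS1 (25 nM) and detected by anti-RUNX1 antibody fluorescence. Values are medians over 4 replicate spots (not normalised). The probes sit in constant array flanks that are not printed.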
Chain of UniProt Q01196 (Q01196 whole entry): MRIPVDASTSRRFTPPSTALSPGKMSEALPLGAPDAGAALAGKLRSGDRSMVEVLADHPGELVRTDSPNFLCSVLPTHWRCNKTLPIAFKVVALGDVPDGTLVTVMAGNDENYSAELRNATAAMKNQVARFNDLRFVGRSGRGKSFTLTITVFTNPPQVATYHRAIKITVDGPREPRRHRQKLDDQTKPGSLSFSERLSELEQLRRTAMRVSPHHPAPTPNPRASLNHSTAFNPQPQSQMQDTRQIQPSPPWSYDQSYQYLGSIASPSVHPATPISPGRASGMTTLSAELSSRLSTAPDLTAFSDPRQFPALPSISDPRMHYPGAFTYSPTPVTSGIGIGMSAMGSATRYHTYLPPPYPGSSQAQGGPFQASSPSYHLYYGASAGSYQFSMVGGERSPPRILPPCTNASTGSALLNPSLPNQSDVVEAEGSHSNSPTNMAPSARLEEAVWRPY
GAGCGGGAGCGCGCCAAGGCACGTGACCGCTTCTGT: the RUNX1 binding intensity stood at 684. For TACCTACAGCAAATGAGACACACCGCAGGCCGATCC the value was 853; for GCCGCGAGTTCAGCCGGGTGGACCACAAATCCCGAG, 811. As for TCCTGTGGCTTTGGGGTTCCTTGTTGCCTGGGCTGG, the figure is 1110; as for CTCCGCAGCATGACTCAGGGCAGCCCTGACCACAGT, 792; as for GCCCCAGCGTCTCCTCTTACCCACAATGCCCCGCCC, 1310. For TCAAAGCTGCGGGGTTTCATTGCCTGTTCCTGAACA the value was 693; for CAAGAGGAACCTGAACTTTGGAAACCACATTCTTAT, 920; for GTCCTCTTCATGTCCCCCAGGTGGGCATGTGGTTTG, 832. For the sequence AGGCTGTTGTGGGTTGCGCCGCTTCGGAGGTGGGAG, the RUNX1 binding intensity came out at 846. Consider ACTTCAATTCCCAACCTCCCCTGTGGTTAGGTGTGG, for which the RUNX1 binding intensity is 1120.

On to TTCTGCACCACAACTGTGCTCTGAGTTCAGGCAACT, for which the RUNX1 binding intensity worked out at 926.

TTATGCCTCAGAATGAACGAACCTCAAACACCCAGG: the RUNX1 binding intensity amounted to 853.

Sequence CGGGTTCAGGACCGCTGATCGGAGGTGAGAATCCCA had an RUNX1 binding intensity of 693. For GTCCTCCAGCAAGCCCGCGCTAACCACCGTGCCTTT the value was 1180; for GAGTGCCGATTCCCCCGCTCACCGCGGGCTAGGGAG, 770.

GTATCAGCCGCGCCGCAGTCGGAGGAGATAGACGCT came in with an RUNX1 binding intensity of 726.

Consider GTTGCCCCACCTCCTGCCAGTGGTTTTTGGTTGGCC, for which the RUNX1 binding intensity was determined as 947.

Sequence ATTACATACGGGCTCCGCGACACGCCCGAACCACAA registered an RUNX1 binding intensity of 863. Take GGAGACCCGGCAAGGCTCCATCCAGCGGTGGCGACA: the RUNX1 binding intensity was determined as 763. For the sequence GTATCAATTCCCAGCTAAGAGCCCCACAGACTCTAA, the RUNX1 binding intensity is 895. As for AAAGAGGCAATCACGTACCCGAAAACCACATGCACA, the figure is 1080. As for CTACCGTGCCCACAAGGCAGCGCGCCGTAAGCCCCG, the figure is 1040; as for AGCTCTGCCAGCAAGTGAGAACCACAGGCCTCCCCT, 850; as for GTCGGCAGTGGCCGTGAGCCCAAGCCGCGGTCCCGG, 757.

Take TGCTTCTGCGGTGGCAGTGGATTCCTCTGGCAAGGG: the RUNX1 binding intensity was 1330. For TGACTCGCGGTCTTGTTATCAGTTGCCGGGATGACA the value was 924.

Regarding CCAAGACCACAGCTCCAAGAGACCTTTCTGTTTATT, the RUNX1 binding intensity is 1130. The sequence CTAGCCCAGAAAGCCGCAGCAGCTTGCTCAGGGACG had an RUNX1 binding intensity of 830. For TTTACGGAATGTAGGCGGCGGCGGCGGTAGTGGTAG the value was 716; for GCGCGCTTCGGCCTTCATGCTAGCAACGCCCGCAGT, 690. For CGGTGCGGTGAGCTCGACACTCAATTCCCTGTGCAG the value was 858; for TTGGGTTCGTGCCAACGCTCTCCAACCACTGCGTAA, 811; for ATCTCCAGATCCTCCCCATCGACCGCATGGTTTACC, 1080. As for GGGGGAGTTTTCGCAAGCGCTAACCGCGTTGGGGCC, the figure is 830. The sequence CCGCGCACCCGGCACTACCTCCCGACCCGCATCCCC came in with an RUNX1 binding intensity of 1440. For GCGGAGCACCTCCCACAGAGGGAACGAATTGCCAGC the value was 720; for AAAGCCATCCCGCAATTGTCAATGGCAGGGAGCCAC, 850. As for GACATGTGGCTATTTTGGGCAATTGCCTGAGGAGGC, the figure is 720. As for TCGTGTTCTCCTCCGTTCTGTGGTAGCTTTTTGGTA, the figure is 1110; as for CACCTGAAAAGGCAAGCGCGGCCGCGCGGTTGGCGC, 731; as for CCTAAGTGACAGCATGGTCTGGCGACCACATTGCCC, 794. For the sequence GAAGGCAGTGGAGACAGTAAGGGGAAACCACAAACC, the RUNX1 binding intensity came to 1060.

The sequence CGTCCCTAAACCACAGCTACAGCATGTAGGCACAAG yielded an RUNX1 binding intensity of 2270. GGTTGCTCGGAGCCGGGACTGCCGCAGGGGGTGCCA registered an RUNX1 binding intensity of 778.

As for TCGGGTGCGCGGTTCGGGGGCGGCTCGGACACCCCA, the RUNX1 binding intensity came to 701. For GCTGCCTTGTGGGCACGGTAGTTCAGCCGGGTCTGG the value was 663; for CCGCTGACAGCCGCTTGGCCTGCGGCTTCTTTCTGT, 1010.

In turn, ATGAGCTATTGCCTGCCTTGTGGTCAGAGCCAGACT registered an RUNX1 binding intensity of 1040. For GCGGGGCGTGACCACGCACTTCCAGTTTTCTCGAAA the value was 869. In turn, GAGAAACCACGCAAACCAAGCCAGTTCCCCCAAGTC displayed an RUNX1 binding intensity of 941. As for CAAGAGAAAGGAGGTGGAAGCTCTTGTGGTCTGGAA, the figure is 704. For GTAGTAAGTTGTGGTTAAAAGAGAGGACGTTCAGAG the value was 7590; for AAGCAGTCAGCATGGCCGAGCGGTCTAAGGCGCTGC, 672; for CAAAGCTACCACAAAGCTACCAGAGAACGAAAGAGA, 887. For CCCTACTGCGTGCGGTGGCAGCTTTCTTACGGCAGT the value was 925; for TTTTTCTTGTGGCTTCTTCAGCCACATGCTGACCAA, 1200. In the case of ATTAAAGACCTCCGTGCAAGACCACAGCTGCCTGAC, the RUNX1 binding intensity amounted to 841. In turn, GGGGCCCCGGGTGCACTGAGCGGCTGCGGCGCGGCT had an RUNX1 binding intensity of 666. For CACTCCCCGCCTCCGGTCTGCGGCGCGCTCGGGGCC, the RUNX1 binding intensity worked out at 819. As for TATAATTTGCGGCTGGGTGTTTACTGTTTTTTTGCA, the figure is 953. For AGGTGGAACTACTGTGTCAGGAGTCGTGGTTTTCAA the value was 885.

GGTACACCCCGCCCGCAGGTACCCGTACGGCGCAAG displayed an RUNX1 binding intensity of 807.

In turn, CGGCGCCTGCGGCCCACCCCTCCCTTTCAGGTCCCC had an RUNX1 binding intensity of 989. As for GCTCTCGCGGGAGATGTCCCTGCGGTGCAGCTGCCG, the figure is 767; as for ACAGCAAATGACATCAGAATCTCCAAACCACAACCA, 1480; as for CAGCAGTGGGTTTGCAGGAGCAGGCTCCATCTGCAG, 752. For CCGCGGTGGTGCCCTTGCCCCTGATGAGGACACTGA, the RUNX1 binding intensity was determined as 831. As for GTGGGTAGGGAGCAAGCTGTGAAACCACCTCCCCTC, the figure is 790. CTGGTCACTGCGGTGAGGAGGCTTTTCATGGGGTAA showed an RUNX1 binding intensity of 1160. For TGTTAAAATGTGGGCAGCAAGAAAGGGAATAGTGTT, the RUNX1 binding intensity was 843. Regarding ACCTGATGCCGGGGCACCGCCAGATGTGGCCACGAG, the RUNX1 binding intensity amounted to 872. As for AGCTCATTCTGAGGCTGCCCACACGGCTGTGGGTCC, the figure is 857.

In turn, CAGGGGCTACCCGCGCAGGACGCTGTTTCGTGCCCC returned an RUNX1 binding intensity of 735. For AGTCGCGGTTCCCACTCCACAACAGACTCGGAGGCT the value was 984; for CTTCCTATGAAAACCACTTTCCTTCTTACCAAAACC, 1990. As for CTTCGAATTACCGCGAGAGAGTGCCGCGTAGGGGTC, the figure is 814; as for GCATCCCGCGCGCCGCAGACCCACTTTCGGAGACCT, 1010; as for GTAGCAACCGCAGGCTCACACACCGAAAGTGCTCGC, 2730.

On to CTGGCCTGCGGCCGCCACCACCTCCTCCTCCCCATG, for which the RUNX1 binding intensity worked out at 1150.
